According to PubChem BioAssay AID651820 (National Center for Advancing Translational Sciences (NCATS), 2012):
The campaign covered roughly 340,000 compounds. About 12,000 (3.5%) were called active. This list was built around the results that the source calls inconclusive (neither active nor inactive); the mix of calls is not that of the screen. The call rests on the fitted dose curve; in most records, active means well fitted inhibition curve with a large enough effect; inconclusive means small, poorly fitted or top-dose-only effect, or another doubt; inactive means no such curve, though single readings can be large or run the other way. Potencies of inconclusive entries are left out as doubtful fits.

assay: qHTS Assay for Inhibitors of Hepatitis C Virus (HCV); conditions: Huh7.5.1 HCVcc-Cre (HCVcc is cell-culture hepatitis C virus) infection, luciferase reporter, 44 h; activity change, negative = inhibition: at 41.8 µM (top of the series) unless noted
Procedure, shortened: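 A cell-based infection assay in which seeded cells (1,000 per well) receive test compound after 4 h, are inoculated with HCVcc-Cre at approximately 0.5 moi, and are incubated 44 h before luminescence detection.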
On the % scale 0 is the no-effect control and ±100 the full control effect; potency means the concentration at half of the fitted maximal effect; tags describe the fitted curve by direction and shape.

Structure (SMILES)	Potency	activity change, negative = inhibition
CCO[C@H]1OC(C(=O)N2CCN(Cc3ccc4c(c3)OCO4)CC2)=C[C@@H](C2CCCCC2)[C@@H]1CCCO	inconclusive [inhibitor, full curve, poor fit]	
COc1ccc(CNC(=O)CCS(=O)(=O)Cc2cccc(Cl)c2)c(OC)c1	inconclusive [inhibitor, partial curve]	
COC(=O)C1=C(CSc2nc3c(cc2C#N)CN(C)CC3)OC(N)=C(C#N)C1c1ccc(F)cc1 (stereo not given)	inconclusive [inhibitor, partial curve]	
CC(C)Oc1ccc(C2CC(=O)N(c3cccc(/C=C/C(=O)O)c3)C2=O)cc1 (stereo not given)	inactive	
S=C(Nc1ccc(Cl)cc1)NC1CCN(Cc2ccccc2)CC1	active: 11.2 µM	
COc1cccc(NC(=O)C(=O)c2cn(CC(=O)N3CCOCC3)c3ccccc23)c1	active: 11.2 µM	
C/C(=N\NC(=O)c1ccc(O)cc1)c1ccc2c(c1)OCCO2	inactive	
CCOC(=O)c1cnn(-c2sc(C(=O)OCC)c(C)c2C(=O)OCC)c1N	inconclusive [inhibitor, partial curve]	
CCC(=O)c1ccc(OCC(O)Cn2cnc3ccccc32)cc1 (stereo not given)	inconclusive [inhibitor, full curve]	
O=S(=O)(NCc1cccnc1)c1ccc(Br)c2ccccc12	inactive	
COc1ccccc1-c1c(C)nn2c(N3CCOCC3)cc(C)nc12		inconclusive: -44.7% [inhibitor]
CCOC(=O)C1=C(C)NC(C)=C(C(=O)OCC)C1C(=O)OCC(=O)N1CCc2ccccc2C1	inconclusive [inhibitor, single point]	
CC(=O)N1CCCc2ccc(NS(=O)(=O)c3ccc(C)cc3)cc21	inconclusive [inhibitor, single point]	
COC(=O)C1=C(N)Oc2cc(C)n(C)c(=O)c2C1c1ccc(Cl)cc1 (stereo not given)	inactive	
CN(CC(=O)Nc1cc(S(=O)(=O)N2CCCC2)ccc1Cl)Cc1cccs1	active: 6.31 µM	
Cc1ccc(C(=O)Nc2ccc(C)c(S(=O)(=O)Nc3ccccc3Cl)c2)s1	active: 10 µM	
O=C(Cn1nnc(-c2ccccc2)n1)N/N=C/c1cc([N+](=O)[O-])ccc1O	inconclusive [inhibitor, single point]	
COc1ccc(-c2noc(-c3ccccc3Cl)n2)cc1OC	active: 10 µM	
CC(C)[Si]1(C(C)C)OCC2OC(n3cnc4c(N)ncnc43)C(N)C2O[Si](C(C)C)(C(C)C)O1 (stereo not given)	inconclusive [inhibitor, single point]	
Cc1ccccc1OCC(=O)N1CCc2ccccc2C1	inactive	
COc1ccc(OC)c(CNC(=O)C2CCCN(c3ncnc4c3nc3n4CCCCC3)C2)c1 (stereo not given)	inconclusive [inhibitor, partial curve]	
CCn1cc2nc(SCC(=O)Nc3ccc(OC)cc3OC)n(Cc3ccc(OC)cc3)c(=O)c2n1	inconclusive [inhibitor, full curve]	
Cc1ccccc1-n1nc(C)c2cc(C(=O)N3CCN(S(=O)(=O)c4ccc(F)cc4)CC3)sc21	inconclusive [inhibitor, single point]	
CCOC(=O)Nc1cccc(OCC(=O)Nc2ccc3c(c2)CCC3)c1	inconclusive [inhibitor, partial curve]	

Structure (SMILES)	Potency	activity change, negative = inhibition
CC1(C)Cc2c(c(-c3ccco3)nc3sc4c(NCCCO)ncnc4c23)CO1	inconclusive [inhibitor, partial curve]	
COc1cccc(-c2cnc(NCc3cc(Cl)ccc3O)n2C)c1	inconclusive [inhibitor, single point]	
CCOC(=O)c1cnn2c(C)cc(-c3ccccc3)nc12	active: 10 µM	
Nc1cc(Cl)ccc1C(=O)OCC(=O)NCc1cccs1	inactive	
Cc1ccc(C2(C(=O)N3CCC(n4nc(-c5ccccc5)oc4=O)CC3)CC2)cc1	inconclusive [inhibitor, single point]	
CCC1(C)OC(=O)N2CCc3c(C)[nH]c4c(C)ccc(c34)C21C (stereo not given)	inconclusive [inhibitor, full curve]	
Nc1ccc(C(=O)O)cc1	inconclusive [inhibitor, full curve]	
CC(=O)Nc1c(NC(=O)CC#N)[nH]c2c(c1=O)c(=O)n(C)c(=O)n2C	inactive	
CC12CCC(=O)C=C1CC(N1CC1)C1C2CCC2(C)C(O)CCC12 (stereo not given)	inconclusive [inhibitor, partial curve, poor fit]	
COc1cccc(NC(=O)CN(C)C(=O)c2c(C)nn(-c3ccccc3)c2Cl)c1	inconclusive [inhibitor, single point]	
O=[N+]([O-])c1cc(Cl)cc(/C=N/Nc2nc3ccccc3s2)c1O	active: 11.2 µM	
Cc1cccc(NC(=O)c2cccc(NC(=O)Cc3cccs3)c2)c1	inconclusive [inhibitor, full curve, poor fit]	
CCN(C(=O)COC(=O)c1cc(C)oc1C)c1c(N)n(Cc2ccccc2)c(=O)[nH]c1=O	inactive	
Cc1ccc(NC(=O)C2=CC(c3cccs3)=NS(=O)(=O)N2C)cc1	inconclusive [inhibitor, single point]	
CCOc1cccc(=NC2CCCCC2)c2c(C)n(C)c(C)c12	inconclusive [inhibitor, full curve]	
CCOC(=O)c1[nH]c2ccc(OC)cc2c1NC(=O)c1cccc(OC)c1	inconclusive [inhibitor, partial curve]	
COc1cccc(C(=O)Nc2ccccc2N2CCN(C(=O)c3ccccc3)CC2)c1	inconclusive [inhibitor, partial curve]	
N#CCCn1cc(C(CC(=O)c2ccc(Br)cc2)C(=O)O)c2ccccc21 (stereo not given)	inactive	
COc1cc(C2Nc3ccccc3C(=O)N2c2ccccc2)c(Br)cc1OCC(=O)O (stereo not given)	inactive	
COc1ccc2cc(-c3ccccc3F)ncc2c1	inconclusive [inhibitor, single point]	
O=C(C1CCN(S(=O)(=O)c2cnc[nH]2)CC1)N1CCN(c2ccc([N+](=O)[O-])cc2)CC1	inactive	
Cn1c(SCCc2ccc([N+](=O)[O-])cc2)nccc1=O	inactive	
CCc1cc(=O)oc2c3c(cc(OCC(=O)NCCCn4ccnc4)c12)OC(C)(C)CC3	inconclusive [inhibitor, full curve]	
COC(=O)C1=C(c2ccc3ccccc3c2)C[C@@H]2CC[C@H]1N2C(=O)NCc1ccc(C(F)(F)F)cc1	inconclusive [inhibitor, partial curve]	

Structure (SMILES)	Potency	activity change, negative = inhibition
CCN(CC)CCOC(=O)c1ccc(NC(=O)C(C)NC(=O)C23CC4CC(CC(C4)C2)C3)cc1 (stereo not given)	inactive	
Cc1nc(S(=O)(=O)N2CCOCC2)c(C#N)c(C)c1Cl	inactive	
COc1cc(NC(=O)c2ccc(Br)o2)ccc1NC(=O)C(C)C	inconclusive [inhibitor, full curve]	
O=C(Nc1cc(Cl)c(Cl)cc1Cl)c1cccnc1	inactive	
CCOC(=O)C/C(C)=N/NC(=O)CNc1cccc(Cl)c1C	inactive	
CCCCOc1ccc(-c2ncc(N)cn2)cc1	inconclusive [inhibitor, single point]	
CCCc1cc(=O)oc2cc(OCC(=O)Nc3cc(C)on3)ccc12	inactive	
O=C(Nc1ccc(N2CCN(C(=O)c3ccco3)CC2)cc1)c1ccc([N+](=O)[O-])cc1Cl	inconclusive [inhibitor, partial curve]	
O=C(Nc1cccc(-c2nnc(-c3ccco3)o2)c1)C(c1ccccc1)c1ccccc1	inconclusive [inhibitor, single point]	
Cc1c(C(=O)N2CCc3ccccc3C2)oc2ccc(S(=O)(=O)N3CCCCCC3)cc12	active: 8.91 µM	
Cc1cccc(-n2ccnc2SCC(=O)N2CCCc3ccccc32)c1C	inconclusive [inhibitor, single point]	
O=C(CSc1nnc(-c2ccc(O)cc2)o1)Nc1ccc2c(c1)OCCO2	inactive	
Cc1[nH]c2ccc(C(=O)OC(C)C(=O)NC3(C#N)CCCCC3)cc2c1C (stereo not given)	active: 14.1 µM	
CCOC(=O)c1c(C)[nH]c(C(=O)COC(=O)c2cccnc2Cl)c1C	inconclusive [inhibitor, full curve]	
CCn1nc(C)c(NC(=O)/C=C/c2ccc(OC)c(COc3ccc(Cl)cc3Br)c2)c1C	inconclusive [inhibitor, full curve]	
NC1=NC(c2ccccc2C(F)(F)F)N(c2ccc(F)c(Cl)c2)C(N)=N1 (stereo not given)	inactive	
Cc1cc(C)c2c(-n3cccc3)c(NC(=O)OCc3ccccc3)sc2n1	inconclusive [inhibitor, full curve]	
COc1ccc(/C=C/C(=O)N2CCC(C(N)=O)CC2)cc1S(=O)(=O)N1CCOCC1	inactive	
CCOCCCNC(=O)c1cc2cc3cc(OC)ccc3nc2o1	inconclusive [inhibitor, single point]	
O=C(N/N=C/c1ccc2cccc(OCc3ccccc3)c2n1)c1ccc(Cl)cc1	inconclusive [inhibitor, partial curve]	
CCOc1ccc(N2C(=O)CC(Sc3nccc(C)n3)C2=O)cc1 (stereo not given)	inactive	
CN(C)C(=O)CCc1ccc2c3c([nH]c2c1)[C@]1(CCc2ccccc2)[C@@H](C(=O)N2CCCCC2)C[C@H](CC(=O)NCc2cccc(C(F)(F)F)c2)C(=O)N1CC3	inconclusive [inhibitor, partial curve]	
